# This is one part of the list.
# B1: Als1 (Candida albicans), P46590 (protein)
# chain: KTITGVFDSFNSLTWSNAANYAFKGPGYPTWNAVLGWSLDGTSANPGDTFTLNMPCVFKYTTSQTSVDLTADGVKYATCQFYSGEEFTTFSTLTCTVNDALKSSIKAFGTVTLPIAFNVGGTGSSTDLEDSKCFTAGTNTVTFNDGDKDISIDVEFEKSTVDPSGYLYASRVMPSLNKVTTLFVAPQCENGYTSGTMGFSSSNGDVAIDCSNIHIGITKGLNDWNYPVSSESFSYTKTCTSNGIQIKYQNVPAGYRPFIDAYISATDVNQYTLAYTNDYTCAGSRLQSKPFTLRWTGYKNSDAGSNGIVIVATTRTVTDSTTAVTTLPFNPSVDKTKTIEILQPIPTTTITTSYVGVTTSYLTKTAPIGETATVIVDVPYHTTTTVTSEWTGTITTTTTRTNPTDSIDTVVVQVP
# Tests used:
# Test in all cases: glycan array binding signal (z-score within array); higher = stronger binding
# Settings in all cases: glycan notation: IUPAC condensed, linker removed
# [1] = molecular target: Fuc(a1-2)Gal(b1-4)GlcNAc(b1-3)Gal(b1-4)GlcNAc(b1-2)Man(a1-3)[Fuc(a1-2)Gal(b1-4)GlcNAc(b1-3)Gal(b1-4)GlcNAc(b1-2)Man(a1-6)]Man(b1-4)GlcNAc(b1-4)GlcNAc
# In short: (§1)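 Arrays were curated from the Consortium for Functional Glycomics database, 3228 in total, and kept only where the protein sequence was available. Binding is expressed as a within-array Z-score. This score was averaged across arrays of the same protein sequence at different concentrations or buffers and across linkers, and negative values can be read as non-binding.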
# [2] = molecular target: Fuc(a1-2)Gal(b1-4)GlcNAc(b1-3)Gal(b1-4)GlcNAc(b1-3)Gal(b1-4)GlcNAc
# In short: as §1
# [3] = molecular target: Fuc(a1-2)Gal(b1-4)GlcNAc(b1-3)GalNAc
# In short: as §1
# [4] = molecular target: Fuc(a1-2)Gal(b1-4)GlcNAc(b1-3)[Fuc(a1-2)Gal(b1-4)GlcNAc(b1-6)]GalNAc
# In short: as §1
# [5] = molecular target: Fuc(a1-2)Gal(b1-4)GlcNAc(b1-3)[Fuc(a1-3)[Gal(b1-4)]GlcNAc(b1-6)]Gal(b1-4)Glc
# In short: as §1
# [6] = molecular target: Fuc(a1-2)Gal(b1-4)GlcNAc(b1-6)GalNAc
# In short: as §1
# [7] = molecular target: Fuc(a1-2)Gal(b1-4)GlcNAc6S
# In short: as §1
# [8] = molecular target: Fuc(a1-2)Gal(b1-4)[Fuc(a1-3)]GlcNAc
# In short: as §1
# [9] = molecular target: Fuc(a1-2)Gal(b1-4)[Fuc(a1-3)]GlcNAc(b1-2)Man(a1-3)[Fuc(a1-2)Gal(b1-4)[Fuc(a1-3)]GlcNAc(b1-2)Man(a1-6)]Man(b1-4)GlcNAc(b1-4)[Fuc(a1-6)]GlcNAc
# In short: as §1
# [10] = molecular target: Fuc(a1-2)Gal(b1-4)[Fuc(a1-3)]GlcNAc(b1-2)[Fuc(a1-2)Gal(b1-4)[Fuc(a1-3)]GlcNAc(b1-4)]Man(a1-3)[Fuc(a1-2)Gal(b1-4)[Fuc(a1-3)]GlcNAc(b1-2)Man(a1-6)]Man(b1-4)GlcNAc(b1-4)GlcNAc
# In short: as §1
# [11] = molecular target: Fuc(a1-2)Gal(b1-4)[Fuc(a1-3)]GlcNAc(b1-3)Gal(b1-4)[Fuc(a1-3)]GlcNAc
# In short: as §1
# [12] = molecular target: Fuc(a1-2)Gal(b1-4)[Fuc(a1-3)]GlcNAc(b1-3)Gal(b1-4)[Fuc(a1-3)]GlcNAc(b1-3)Gal(b1-4)[Fuc(a1-3)]GlcNAc
# In short: as §1
# [13] = molecular target: Fuc(a1-2)Gal(b1-4)[Fuc(a1-3)]GlcNAc(b1-3)GalNAc
# In short: as §1
# [14] = molecular target: Fuc(a1-2)Gal(b1-4)[Fuc(a1-3)]GlcNAc(b1-3)[Neu5Ac(a2-6)Gal(b1-4)GlcNAc(b1-6)]Gal(b1-4)Glc
# In short: as §1
# [15] = molecular target: Fuc(a1-2)Gal3S(b1-4)GlcNAc
# In short: as §1
# [16] = molecular target: Fuc(a1-2)Gal6S(b1-3)GlcNAc
# In short: as §1
# [17] = molecular target: Fuc(a1-2)Gal6S(b1-3)GlcNAc6S
# In short: as §1
# Fuc(a1-2)Gal6S(b1-4)Glc = molecular target: Fuc(a1-2)Gal6S(b1-4)Glc
# In short: as §1
# [18] = molecular target: Fuc(a1-2)Gal6S(b1-4)Glc6S
# In short: as §1
# Fuc(a1-2)[Gal(a1-3)]Gal = molecular target: Fuc(a1-2)[Gal(a1-3)]Gal
# In short: as §1
# [19] = molecular target: Fuc(a1-2)[Gal(a1-3)]Gal(b1-3)GalNAc
# In short: as §1
# [20] = molecular target: Fuc(a1-2)[Gal(a1-3)]Gal(b1-3)GalNAc(b1-3)Gal(a1-4)Gal(b1-4)Glc
# In short: as §1
# [21] = molecular target: Fuc(a1-2)[Gal(a1-3)]Gal(b1-3)GlcNAc
# In short: as §1
# [22] = molecular target: Fuc(a1-2)[Gal(a1-3)]Gal(b1-3)GlcNAc(b1-2)Man(a1-3)[Fuc(a1-2)[Gal(a1-3)]Gal(b1-3)GlcNAc(b1-2)Man(a1-6)]Man(b1-4)GlcNAc(b1-4)GlcNAc
# In short: as §1
# [23] = molecular target: Fuc(a1-2)[Gal(a1-3)]Gal(b1-3)GlcNAc(b1-2)Man(a1-3)[Fuc(a1-2)[Gal(a1-3)]Gal(b1-3)GlcNAc(b1-2)Man(a1-6)]Man(b1-4)GlcNAc(b1-4)[Fuc(a1-6)]GlcNAc
# In short: as §1
# [24] = molecular target: Fuc(a1-2)[Gal(a1-3)]Gal(b1-3)GlcNAc(b1-3)GalNAc
# In short: as §1
# [25] = molecular target: Fuc(a1-2)[Gal(a1-3)]Gal(b1-3)GlcNAc(b1-6)GalNAc
# In short: as §1
# [26] = molecular target: Fuc(a1-2)[Gal(a1-3)]Gal(b1-4)Glc
# In short: as §1
# [27] = molecular target: Fuc(a1-2)[Gal(a1-3)]Gal(b1-4)GlcNAc
# In short: as §1
# [28] = molecular target: Fuc(a1-2)[Gal(a1-3)]Gal(b1-4)GlcNAc(b1-2)Man
# In short: as §1
# [29] = molecular target: Fuc(a1-2)[Gal(a1-3)]Gal(b1-4)GlcNAc(b1-2)Man(a1-3)[Fuc(a1-2)[Gal(a1-3)]Gal(b1-4)GlcNAc(b1-2)Man(a1-6)]Man(b1-4)GlcNAc(b1-4)GlcNAc
# In short: as §1
# [30] = molecular target: Fuc(a1-2)[Gal(a1-3)]Gal(b1-4)GlcNAc(b1-2)Man(a1-3)[Fuc(a1-2)[Gal(a1-3)]Gal(b1-4)GlcNAc(b1-2)Man(a1-6)]Man(b1-4)GlcNAc(b1-4)[Fuc(a1-6)]GlcNAc
# In short: as §1
# [31] = molecular target: Fuc(a1-2)[Gal(a1-3)]Gal(b1-4)GlcNAc(b1-3)GalNAc
# In short: as §1
# [32] = molecular target: Fuc(a1-2)[Gal(a1-3)]Gal(b1-4)GlcNAc(b1-3)[Fuc(a1-2)[Gal(a1-3)]Gal(b1-4)GlcNAc(b1-6)]GalNAc
# In short: as §1
# [33] = molecular target: Fuc(a1-2)[Gal(a1-3)]Gal(b1-4)GlcNAc(b1-6)GalNAc
# In short: as §1
# [34] = molecular target: Fuc(a1-2)[Gal(a1-3)]Gal(b1-4)[Fuc(a1-3)]Glc
# In short: as §1
# [35] = molecular target: Fuc(a1-2)[Gal(a1-3)]Gal(b1-4)[Fuc(a1-3)]GlcNAc
# In short: as §1
binder,measurement,setting,value
B1,glycan array binding signal (z-score),[1],-0.087
same,glycan array binding signal (z-score),[2],-0.553
same,glycan array binding signal (z-score),[3],0.399
same,glycan array binding signal (z-score),[4],-0.707
same,glycan array binding signal (z-score),[5],-0.792
same,glycan array binding signal (z-score),[6],-0.316
same,glycan array binding signal (z-score),[7],0.114
same,glycan array binding signal (z-score),[8],-0.336
same,glycan array binding signal (z-score),[9],-0.424
same,glycan array binding signal (z-score),[10],0.506
same,glycan array binding signal (z-score),[11],-0.88
same,glycan array binding signal (z-score),[12],-0.613
same,glycan array binding signal (z-score),[13],1.77
same,glycan array binding signal (z-score),[14],-0.354
same,glycan array binding signal (z-score),[15],-0.065
same,glycan array binding signal (z-score),[16],-0.676
same,glycan array binding signal (z-score),[17],0.403
same,glycan array binding signal (z-score),Fuc(a1-2)Gal6S(b1-4)Glc,-0.435
same,glycan array binding signal (z-score),[18],-0.25
same,glycan array binding signal (z-score),Fuc(a1-2)[Gal(a1-3)]Gal,-0.327
same,glycan array binding signal (z-score),[19],-0.53
same,glycan array binding signal (z-score),[20],-0.049
same,glycan array binding signal (z-score),[21],-0.125
same,glycan array binding signal (z-score),[22],-0.844
same,glycan array binding signal (z-score),[23],-0.335
same,glycan array binding signal (z-score),[24],-0.482
same,glycan array binding signal (z-score),[25],-0.3
same,glycan array binding signal (z-score),[26],-0.48
same,glycan array binding signal (z-score),[27],-0.644
same,glycan array binding signal (z-score),[28],-0.385
same,glycan array binding signal (z-score),[29],-0.668
same,glycan array binding signal (z-score),[30],-0.749
same,glycan array binding signal (z-score),[31],-0.678
same,glycan array binding signal (z-score),[32],-0.556
same,glycan array binding signal (z-score),[33],1.62
same,glycan array binding signal (z-score),[34],0.021
same,glycan array binding signal (z-score),[35],0.286
